# Measured values from PubChem BioAssay AID686992 (Broad Institute, 2013).
# Screen size: about 260,000 compounds; about 960 (0.37%) were called active. This list was built around the results that the source calls inconclusive (neither active nor inactive); the mix of calls is not that of the screen.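 Rule for the calls: active = mean E-selectin-positive cell signal at least 10% of the positive control, reached in at least 60% of replicates, without over 20% cell loss; inconclusive = no rule given, readout overlaps actives, possibly toxicity-flagged; inactive = the rest, including those meeting only one limit.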
# Target: E-selectin (Homo sapiens) (UniProt P16581)
# Assay: inducers of endothelial E-selectin expression – imaging, HUVEC, immunofluorescence imaging, single point, primary screen (AID 686992);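 note: signal is the percent of cells scored E-selectin positive by PE staining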
# Settings: at 7.58 µM, stronger effect = higher value, normalized: neutral wells 0, TNF-alpha wells 100
# Outline: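 System: HUVEC / Compound: single concentration / Signal: immunofluorescence imaging / Read-out: percent E-selectin-positive cells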
# Chain of UniProt P16581 (P16581 whole entry, looked up): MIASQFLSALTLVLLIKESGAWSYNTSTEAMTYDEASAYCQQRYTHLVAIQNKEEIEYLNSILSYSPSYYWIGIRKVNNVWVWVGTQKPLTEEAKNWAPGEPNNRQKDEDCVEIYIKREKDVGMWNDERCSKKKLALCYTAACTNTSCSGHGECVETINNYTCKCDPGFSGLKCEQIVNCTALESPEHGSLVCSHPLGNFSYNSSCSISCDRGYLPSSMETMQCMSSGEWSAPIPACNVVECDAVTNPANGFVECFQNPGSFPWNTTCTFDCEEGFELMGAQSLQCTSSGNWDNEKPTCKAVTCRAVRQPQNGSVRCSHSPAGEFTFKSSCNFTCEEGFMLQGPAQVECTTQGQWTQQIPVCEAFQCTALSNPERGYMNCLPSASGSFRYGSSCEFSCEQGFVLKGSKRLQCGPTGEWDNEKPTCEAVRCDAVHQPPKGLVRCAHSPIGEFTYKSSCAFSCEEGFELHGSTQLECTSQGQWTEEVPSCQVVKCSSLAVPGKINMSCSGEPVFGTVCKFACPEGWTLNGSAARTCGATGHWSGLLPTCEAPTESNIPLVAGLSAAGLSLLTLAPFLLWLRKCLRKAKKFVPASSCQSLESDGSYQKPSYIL
row,Structure (SMILES),activation
1,N#Cc1ccc(-c2csc(NC3=NCCCCC3)n2)cc1,active: 44.2%
2,C[C@@H]1CN([C@H](C)CO)C(=O)Cc2cc(NS(C)(=O)=O)ccc2O[C@@H]1CN(C)S(=O)(=O)c1cn(C)cn1,inconclusive: 147%
3,C[C@@H]1CN([C@H](C)CO)C(=O)c2cc(NC(=O)c3ccncc3)ccc2O[C@H]1CN(C)C(=O)Nc1ccc2c(c1)OCO2,inconclusive: 32.6%
4,O=C(C1CCCO1)N1CCN(S(=O)(=O)c2ccc(Br)cc2)CC1 (stereo not given),inconclusive: 43.6%
5,C[C@H](CO)N1C[C@H](C)[C@@H](CN(C)Cc2ccc(C(F)(F)F)cc2)Oc2ccc(N(C)C)cc2CC1=O,inconclusive: 103%
6,Cc1cccc(OCC(=O)NCc2nnc3ccc(C(F)(F)F)cn23)c1C,inconclusive: 150%
7,C=CCN1C(=O)/C(=C\c2ccc(OC(=O)c3ccco3)c(OC)c2)SC1=S,inconclusive: 58.7%
8,Cn1c(CNS(=O)(=O)c2cccc(Cl)c2)cc(=O)n(C)c1=O,inactive: 0.318%
9,C[C@H]1CN([C@@H](C)CO)C(=O)c2cccc(NS(=O)(=O)c3ccc(Cl)cc3)c2O[C@@H]1CN(C)Cc1ccc(-c2ccccc2)cc1,inconclusive: 34.5%
10,C[C@H]1CN([C@@H](C)CO)C(=O)c2cc(NC(=O)Nc3ccccc3)ccc2O[C@H]1CN(C)C(=O)Nc1ccc(C(F)(F)F)cc1,inconclusive: 27.3%
11,CCC(=O)N1CC[C@@H]2[C@@H](CO)N(C)c3ccc(-c4cccc(OC)c4)cc3[C@@H]21,inconclusive: 42.3%
12,Cc1ccc(S(=O)(=O)N(C)C[C@H]2OCCCC[C@H](C)Oc3ccc(NS(C)(=O)=O)cc3C(=O)N([C@H](C)CO)C[C@H]2C)cc1,inactive: 1.13%
13,C[C@H]1CN([C@@H](C)CO)C(=O)Cc2cc(NS(=O)(=O)c3ccc(F)cc3)ccc2O[C@@H]1CN(C)C,inconclusive: 47.5%
14,O=[N+]([O-])c1cccc(S(=O)(=O)Nc2nc3ccccc3nc2Nc2cccc(S(=O)(=O)N3CCCCC3)c2)c1,inactive: -0.579%
15,C[C@H]1CN([C@@H](C)CO)C(=O)c2cccc(NC(=O)C3CCOCC3)c2O[C@H]1CN(C)Cc1ccc(Oc2ccccc2)cc1,inconclusive: 165%
16,C[C@@H]1CN([C@@H](C)CO)S(=O)(=O)c2ccc(C3=CCCC3)cc2O[C@H]1CN(C)C(=O)c1ccc(F)cc1,inactive: 0.266%
17,C[C@H]1CN([C@@H](C)CO)C(=O)c2cc(NC(=O)CCCCCC(=O)Nc3ccccc3N)ccc2O[C@H]1CN(C)C(=O)Nc1ccc(F)cc1,active: 43.5%
18,COc1ccc(NC(=O)C(Cc2ccccc2)n2cccc2)cc1 (stereo not given),inconclusive: 57.1%
19,c1ccc(-c2nnsc2-c2nc3ccccc3[nH]2)cc1,inactive: -0.553%
20,O=C1C(=O)c2ccccc2C(O)=C1C1CCC(c2ccc(Cl)cc2)CC1 (stereo not given),inconclusive: 54.6%
21,COc1ccccc1CNC(=O)C[C@H]1C[C@@H]2c3cc(NC(=O)Nc4ccc(C(F)(F)F)cc4)ccc3O[C@@H]2[C@@H](CO)O1,inconclusive: 52%
22,CCOCCCNC(=O)c1cc2c(=O)n(CC)c3ccccc3c2s1,inconclusive: 40.9%
23,C[C@@H]1CN([C@H](C)CO)C(=O)Cc2cc(NC(=O)Cc3cn(C)c4ccccc34)ccc2O[C@@H]1CN(C)Cc1ccc(C(F)(F)F)cc1,active: 275%

row,Structure (SMILES),activation
1,C[C@H]1CN([C@@H](C)CO)C(=O)Cc2cc(NS(=O)(=O)c3cn(C)cn3)ccc2O[C@H]1CN(C)Cc1ccc2c(c1)OCO2,inactive: -0.168%
2,C[C@H](CO)N1C[C@H](C)[C@H](CN(C)C(=O)Nc2ccc(C(F)(F)F)cc2)Oc2ccc(NC(=O)Cn3cnnn3)cc2CC1=O,active: 41.5%
3,CC1CN(C(=O)c2cccc(COc3ccccc3Cl)c2)CC(C)O1 (stereo not given),inconclusive: 50.2%
4,CC(O)(c1ccc(F)c(F)c1)c1nc(-c2cc(F)cc(F)c2)cs1 (stereo not given),inconclusive: 58.1%
5,C[C@H]1CN([C@@H](C)CO)C(=O)c2cccc(NS(C)(=O)=O)c2O[C@H]1CN(C)Cc1ccc(C(F)(F)F)cc1,inconclusive: 52.7%
6,C=CCNc1nc(-c2c(C)nc3ncccn23)cs1,inconclusive: 51.5%
7,C[C@H](CO)N1C[C@H](C)[C@@H](CN(C)S(=O)(=O)c2cn(C)cn2)Oc2ccc(NS(C)(=O)=O)cc2CC1=O,inconclusive: 48.6%
8,C[C@@H]1CCCCO[C@@H](CN(C)C(=O)Nc2ccc(F)cc2)[C@H](C)CN([C@H](C)CO)C(=O)c2cc(NC(=O)c3ccncc3)ccc2O1,inactive: -0.14%
9,Cn1nnnc1SCc1cccc2ccccc12,inconclusive: 36.5%
10,C1CCCCCC(=NNc2nn[nH]n2)CCCCC1,active: 67.3%
11,COc1cc(C(=O)Nc2ccc(F)cc2Cl)ccc1OCC(=O)N1CCOCC1,inconclusive: 69.6%
12,CCOC(=O)N1CCN(c2c(N3CCOCC3)c(=O)c2=O)CC1,active: 204%
13,O=C1CSC(c2ccc([N+](=O)[O-])cc2)N1CCN1CCCCC1 (stereo not given),inactive: -0.08%
14,COc1ccc(NC(=O)C2(C)Cc3c(-c4ccc(C(N)=O)cc4)ccnc3O2)cc1OC (stereo not given),inactive: 1.13%
15,CCC(=O)OCCCCCCOc1ccc(C(=O)O)cc1,inactive: -0.807%
16,O=[N+]([O-])c1ccc2c(c1)CO[C@@]21O[C@H](CCO)C[C@H](O)[C@H]1O,active: 64.9%
17,CCOc1cc(N2CCOCC2)c(OCC)cc1NC(=O)c1ccc(S(=O)(=O)N2CC(C)OC(C)C2)cc1 (stereo not given),active: 131%
18,O=C1NC(Cc2ccccc2)c2nc3cc(F)c(F)cc3c(=O)n2-c2cc3ccccc3cc21 (stereo not given),inconclusive: 109%
19,CCC(C)NCCCCOc1ccc(Cl)cc1C (stereo not given),inconclusive: 58.1%
20,O=C(Nc1ccc2oc(-c3ccccc3)nc2c1)c1cc(-n2cnnc2)ccc1Cl,inconclusive: 37%
21,COc1ccc(NC(=O)N(C)C[C@H]2OCCCC[C@@H](C)Oc3ccc(NC(=O)C4CCCCC4)cc3C(=O)N([C@@H](C)CO)C[C@H]2C)cc1,inactive: -0.117%
22,COc1ccc(/C=N/NC(=O)C(=O)/C=C2\NC3(CCCC3)Cc3ccccc32)cc1,inactive: 0.909%
